Experimental data: US20240254175A1, “NOVEL SELECTIVE ANT[…] PEPTIDES” (BOMBI BIOMICS BV, priority 2021, published 2024)
“Also recorded” adds a separate entry of the source. Part of at least one peptide drawing is inferred or uncertain, most often the ends. Some entries repeat one wording, which the source may state once for all of them. Non-standard residues stand in square brackets, D forms with d. Residues, ends and D or L forms follow the SMILES beside them. No end group written: not given here. *: point of attachment. Palmitoyl = CCCCCCCCCCCCCCCC(=O)*

What was measured:
[1] = test system: other bacteria tested (C. granulosum, C. avidum, S. aureus, S. epidermis, C. striatum); test: In vitro killing assay on the other (non C. acnes) bacteria; assay type: cell-based
Protocol: Inoculi of mid-log phase bacteria were prepared by incubating the above isolated colonies from blood agar plates in Tryptic Soy Broth (TSB) medium (Becton Dickinson, Le Pont de Clax, France) for 2.5 hours and then diluted to the concentration needed.
For the in vitro killing assay on mid-log phase bacteria, each of the above strains were resuspended to a concentration of 1×10^6 bacteria/ml in phosphate buffered saline (PBS). Subsequently, 200 μl was added to a concentration range of peptides Wildtype BLP-7, BMBN-1, BMBN-2, BMBN-3, BMBN-4, BMBN-5, BMBN-6, and BMBN-7 that were lyophilized in advance. Subsequently, the bacteria-peptide mixtures were incubated for 1 hour at 37° C. To establish the killing capacity and specificity of these peptides, the suspensions were serially diluted and plated onto DST agar plates to measure viable CFU counts. IC90, IC99 and IC99.9 values were calculated by linear regression analysis. […] Results were pooled from 4 independent experiments concerning the above C. acnes strains (FIG. 2B) and 5 independent experiments concerning the other non C. acnes related strains (FIG. 2B continued). The results are expressed as mean±standard deviation (SD).

[2] = test system: IL-8, IL-12, and TNF-α expression in RAW264.7 cells; test: Inhibition of inflammatory cytokines in RAW264.7 cells (qRT-PCR and ELISA); assay type: cell-based; details: for mRNA expression of IL-8, IL12, and TNF-α induced by C. acnes infection: RAW264.7 cells pretreated 1 hour, C. acnes HL045PA1, MOI of 10; for expression of IL-12 caused by the PG treatment / mRNA expression of IL-8 and TNF-α caused by PG: peptidoglycan (PG) treatment; for secretion of IL-8, IL-12, and TNF-α: induction of macrophages by C. acnes (strain HL045PA1) and PG, ELISA
[3] = test system: C. acnes HL045PA1, RT6 HL110PA3, DSM 16379/KPA171202, and HL096PA3 isolates; details: against C. acnes; previous published findings, own results in line; cited from earlier work
[4] = test system: C. acnes HL045PA1, RT6 HL110PA3, DSM 16379/KPA171202, and HL096PA3 isolates; test: Broth microdilution assay (MIC); assay type: cell-based, Cutibacterium acnes; details: compared with BLP7 alone
C. acnes HL045PA1 = test: Transmission electron microscopy (TEM); assay type: cell-based, Cutibacterium acnes; details: peptide 5 mg/ml, 4 hours at 37° C.
C. acnes = test: In vitro killing assay on mid-log phase C. acnes; assay type: cell-based, Cutibacterium acnes; details: for killing of / antimicrobial activity against C. acnes (in words): in vitro

In the case of `CCCCCCCCCCCCCCCC(=O)NCC(=O)N[C@H](C(=O)NCC(=O)NCC(=O)N[C@@H](C)C(=O)N[C@@H](CC(C)C)C(=O)N[C@@H](CC(C)C)C(=O)N[C@@H](CO)C(=O)N[C@@H](C)C(=O)NCC(=O)N[C@@H](CCCCN)C(=O)N[C@@H](CO)C(=O)N[C@@H](C)C(=O)N[C@@H](CC(C)C)C(=O)N[C@@H](CCCCN)C(=O)NCC(=O)N[C@@H](CC(C)C)C(=O)N[C@@H](C)C(=O)N[C@@H](CCCCN)C(=O)NCC(=O)N[C@@H](CC(C)C)C(=O)N[C@@H](C)C(=O)N[C@@H](CCC(=O)O)C(=O)N[C@@H](Cc1c[nH]cn1)C(=O)N[C@@H](Cc1ccccc1)C(=O)N[C@@H](C)C(=O)N[C@@H](CC(N)=O)C(N)=O)[C@@H](C)CC` [BMBN-1] (Palmitoyl-GIGGALLSAGKSALKGLAKGLAEHFAN-NH2), the “effect on other, untargeted bacteria / specificity towards C. acnes (in words)” value [1] is reported as “broad spectrum towards killing the other bacterial species”.
With `CCCCCCCCCCCCCCCC(=O)N[C@@H](CCC(=O)O)C(=O)N[C@@H](CCCNC(=N)N)C(=O)N[C@@H](CC(N)=O)C(=O)N[C@@H](CC(N)=O)C(=O)N[C@@H](Cc1ccccc1)C(=O)NCC(=O)NCC(=O)NCC(=O)NCC(=O)N[C@H](C(=O)NCC(=O)NCC(=O)N[C@@H](C)C(=O)N[C@@H](CC(C)C)C(=O)N[C@@H](CC(C)C)C(=O)N[C@@H](CO)C(=O)N[C@@H](C)C(=O)NCC(=O)N[C@@H](CCCCN)C(=O)N[C@@H](CO)C(=O)N[C@@H](C)C(=O)N[C@@H](CC(C)C)C(=O)N[C@@H](CCCCN)C(=O)NCC(=O)N[C@@H](CC(C)C)C(=O)N[C@@H](C)C(=O)N[C@@H](CCCCN)C(=O)NCC(=O)N[C@@H](CC(C)C)C(=O)N[C@@H](C)C(=O)N[C@@H](CCC(=O)O)C(=O)N[C@@H](Cc1c[nH]cn1)C(=O)N[C@@H](Cc1ccccc1)C(=O)N[C@@H](C)C(=O)N[C@@H](CC(N)=O)C(N)=O)[C@@H](C)CC` [BMBN-2] (Palmitoyl-ERNNFGGGGIGGALLSAGKSALKGLAKGLAEHFAN-NH2) the “effect on other, untargeted bacteria / specificity towards C. acnes (in words)” value [1] was “specificity towards C. acnes only negligibly decreased”.
In the case of “GIGGALLSAGKSALKGLAKGLAEHFAN-NH2 [Wildtype BLP-7, reference compound]”, the “effect on other, untargeted bacteria / specificity towards C. acnes (in words)” value [1] is reported as “broad spectrum towards killing the other bacterial species”, the “mRNA expression of IL-8, IL12, and TNF-α induced by C. acnes infection” value [2] is reported as “significantly inhibited” and the “expression of IL-12 caused by the PG treatment” value ([2]; RAW264.7 cells) is reported as “not significantly altered”. The “mRNA expression of IL-8 and TNF-α caused by PG” value ([2]; RAW264.7 cells) was “greatly reduced”, the “secretion of IL-8, IL-12, and TNF-α” value [2] was “significantly reduce” and the MIC [3] was 5 µg/mL.
For `CCCCCCCCCCCCCCCC(=O)N[C@@H](CCC(=O)O)C(=O)N[C@@H](Cc1ccccc1)C(=O)NCC(=O)NCC(=O)N[C@@H](CCC(N)=O)C(=O)NCC(=O)NCC(=O)NCC(=O)NCC(=O)N[C@H](C(=O)NCC(=O)NCC(=O)N[C@@H](C)C(=O)N[C@@H](CC(C)C)C(=O)N[C@@H](CC(C)C)C(=O)N[C@@H](CO)C(=O)N[C@@H](C)C(=O)NCC(=O)N[C@@H](CCCCN)C(=O)N[C@@H](CO)C(=O)N[C@@H](C)C(=O)N[C@@H](CC(C)C)C(=O)N[C@@H](CCCCN)C(=O)NCC(=O)N[C@@H](CC(C)C)C(=O)N[C@@H](C)C(=O)N[C@@H](CCCCN)C(=O)NCC(=O)N[C@@H](CC(C)C)C(=O)N[C@@H](C)C(=O)N[C@@H](CCC(=O)O)C(=O)N[C@@H](Cc1c[nH]cn1)C(=O)N[C@@H](Cc1ccccc1)C(=O)N[C@@H](C)C(=O)N[C@@H](CC(N)=O)C(N)=O)[C@@H](C)CC` [BMBN-4] (Palmitoyl-EFGGQGGGGIGGALLSAGKSALKGLAKGLAEHFAN-NH2), the “effect on other, untargeted bacteria / specificity towards C. acnes (in words)” value [1] was “total loss of specificity”.
For `CCCCCCCCCCCCCCCC(=O)N[C@@H](CCC(=O)O)C(=O)N[C@@H](CCCNC(=N)N)C(=O)N[C@@H](CC(N)=O)C(=O)N[C@@H](CC(N)=O)C(=O)N[C@@H](Cc1ccccc1)C(=O)NCC(=O)NCC(=O)NCC(=O)NCC(=O)N[C@H](C(=O)NCC(=O)NCC(=O)N[C@@H](C)C(=O)N[C@@H](CC(C)C)C(=O)N[C@@H](CC(C)C)C(=O)N[C@@H](CO)C(=O)N[C@@H](C)C(=O)NCC(=O)N[C@@H](CCC(=O)O)C(=O)N[C@@H](CO)C(=O)N[C@@H](C)C(=O)N[C@@H](CC(C)C)C(=O)N[C@@H](CCCCN)C(=O)NCC(=O)N[C@@H](CC(C)C)C(=O)N[C@@H](C)C(=O)N[C@@H](CCCCN)C(=O)NCC(=O)N[C@@H](CC(C)C)C(=O)N[C@@H](C)C(=O)N[C@@H](CCC(=O)O)C(=O)N[C@@H](Cc1c[nH]cn1)C(=O)N[C@@H](Cc1ccccc1)C(=O)N[C@@H](C)C(=O)N[C@@H](CC(N)=O)C(N)=O)[C@@H](C)CC` [BMBN-5] (Palmitoyl-ERNNFGGGGIGGALLSAGESALKGLAKGLAEHFAN-NH2), the “effect on other, untargeted bacteria / specificity towards C. acnes (in words)” value [1] was “specificity towards C. acnes only negligibly decreased”.
For `CCCCCCCCCCCCCCCC(=O)N[C@H](CCC(=O)O)C(=O)N[C@H](CCCNC(=N)N)C(=O)N[C@H](CC(N)=O)C(=O)N[C@H](CC(N)=O)C(=O)N[C@H](Cc1ccccc1)C(=O)NCC(=O)NCC(=O)NCC(=O)NCC(=O)N[C@@H](C(=O)NCC(=O)NCC(=O)N[C@H](C)C(=O)N[C@H](CC(C)C)C(=O)N[C@H](CC(C)C)C(=O)N[C@H](CO)C(=O)N[C@H](C)C(=O)NCC(=O)N[C@H](CCCCN)C(=O)N[C@H](CO)C(=O)N[C@H](C)C(=O)N[C@H](CC(C)C)C(=O)N[C@H](CCCCN)C(=O)NCC(=O)N[C@H](CC(C)C)C(=O)N[C@H](C)C(=O)N[C@H](CCCCN)C(=O)NCC(=O)N[C@H](CC(C)C)C(=O)N[C@H](C)C(=O)N[C@H](CCC(=O)O)C(=O)N[C@H](Cc1c[nH]cn1)C(=O)N[C@H](Cc1ccccc1)C(=O)N[C@H](C)C(=O)N[C@H](CC(N)=O)C(N)=O)[C@H](C)CC` [BMBN-3] (Palmitoyl-[dE][dR][dN][dN][dF]GGGG[dI]GG[dA][dL][dL][dS][dA]G[dK][dS][dA][dL][dK]G[dL][dA][dK]G[dL][dA][dE][dH][dF][dA][dN]-NH2), the “effect on other, untargeted bacteria / specificity towards C. acnes (in words)” value [1] was “specificity towards C. acnes only negligibly decreased”.
In the case of `CCCCCCCCCCCCCCCC(=O)N[C@H](CCC(=O)O)C(=O)N[C@H](CCCNC(=N)N)C(=O)N[C@H](CC(N)=O)C(=O)N[C@H](CC(N)=O)C(=O)N[C@H](Cc1ccccc1)C(=O)NCC(=O)NCC(=O)NCC(=O)NCC(=O)N[C@@H](C(=O)NCC(=O)NCC(=O)N[C@H](C)C(=O)N[C@H](CC(C)C)C(=O)N[C@H](CC(C)C)C(=O)N[C@H](CO)C(=O)N[C@H](C)C(=O)NCC(=O)N[C@H](CCC(=O)O)C(=O)N[C@H](CO)C(=O)N[C@H](C)C(=O)N[C@H](CC(C)C)C(=O)N[C@H](CCCCN)C(=O)NCC(=O)N[C@H](CC(C)C)C(=O)N[C@H](C)C(=O)N[C@H](CCCCN)C(=O)NCC(=O)N[C@H](CC(C)C)C(=O)N[C@H](C)C(=O)N[C@H](CCC(=O)O)C(=O)N[C@H](Cc1c[nH]cn1)C(=O)N[C@H](Cc1ccccc1)C(=O)N[C@H](C)C(=O)N[C@H](CC(N)=O)C(N)=O)[C@H](C)CC` [BMBN-7] (Palmitoyl-[dE][dR][dN][dN][dF]GGGG[dI]GG[dA][dL][dL][dS][dA]G[dE][dS][dA][dL][dK]G[dL][dA][dK]G[dL][dA][dE][dH][dF][dA][dN]-NH2), the “effect on other, untargeted bacteria / specificity towards C. acnes (in words)” value [1] is reported as “no effect on the other bacteria tested; also recorded: without showing the ability to inhibit the growth of other microbial species; also recorded: loss of bactericidal effects towards all the untargeted bacteria”, the “decrease of cytokines compared with the wildtype BLP-7 peptide” value ([2]; RAW264.7 cells) is reported as “higher decrease” and the “mRNA expression of IL-8, IL12, and TNF-α induced by C. acnes infection” value [2] is reported as “significantly inhibited”. For the same compound, the “expression of IL-12 caused by the PG treatment” value ([2]; RAW264.7 cells) was “not significantly altered”, the “mRNA expression of IL-8 and TNF-α caused by PG” value ([2]; RAW264.7 cells) was “greatly reduced” and the “secretion of IL-8, IL-12, and TNF-α” value [2] was “significantly reduce”. The “MIC against C. acnes relative to BLP7 alone” value [4] was 7 times lower, the “cell morphology after treatment (TEM)” value (C. acnes HL045PA1) was “severe cell morphological changes” and the “killing of / antimicrobial activity against C. acnes (in words)” value (C. acnes) was “highly effective; also recorded: considerably more effective than any other peptide tested; also recorded: robust antimicrobial activity”. The “killing of / antimicrobial activity against C. acnes (in words)” value (C. acnes; listed as BMB-7) was “clearly outperforms the wildtype BLP-7 peptide” and the IC99.9 (C. acnes; killing of C. acnes, 1 hour at 37° C. in PBS, CFU counts) was 3.22 µM.
